# Screen size: about 44,000 compounds; about 340 (0.77%) were called active. About 5% were inconclusive and are not listed. The call rests on the fitted dose curve; in most records, active means well fitted inhibition curve with a large enough effect; inconclusive means small, poorly fitted or top-dose-only effect; inactive means flat fitted curve, though single readings scatter. Some of the results follow.
# Test: Acumen qHTS Assay for Inhibitors of the mTORC1 Signaling Pathway in MEF (Tsc2-/-, p53-/-) Cells: Sytravon;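 further: plate controls were DMSO for no effect and rapamycin for full effect; nearly all actives have a fitted effect of over 50% in size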
# Conditions: phospho-rpS6 immunofluorescence/PI, 24 h; series mostly up to 38.3 µM; activity change, negative = inhibition: at the top concentration
# How it was run: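 Tsc2-/-, p53-/- MEFs (empty-vector stable line) in DMEM + 10% FBS were treated with compounds 24 h at 37 degree Celsius, fixed, and immunostained for phospho-rpS6 (Alexa-488) with propidium iodide counterstain. Laser-scanning cytometry gave % positive cells, normalized against 7.5 nM rapamycin and DMSO.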
row,Compound,"activity change, negative = inhibition"
1,Nc1nn(-c2ccccc2)nc1C(=O)OCc1ccccc1Br,inactive: 0.519%
2,Cc1ccc(NC(=O)c2cc(CN3CCOCC3)on2)cc1Cl,inactive: 0.0331%
3,CC1=C(C(=O)Nc2ccc(C)cc2Cl)C2(CCCCC2)OC1=O,inactive: -6.53%
4,COc1ccc2c(c1)CCc1c(C(=O)Nc3c(C)nn(Cc4c(Cl)cccc4Cl)c3C)noc1-2,inactive: 2.3%
5,CCOC(=O)c1c(C)[nH]c(C)c1S(=O)(=O)NCC(=O)Nc1ccc(CC)cc1,inactive: 9.2%
6,CCc1ccccc1NC(=O)c1cc2sc(Cl)cc2n1CC,inactive: -0.7%
7,O=C(c1cccs1)c1cn(CCOc2ccc(F)cc2)c2ccccc12,inactive: 1.07%
8,O=C(Cn1cnc2onc(-c3ccc(F)cc3)c2c1=O)N1CCN(c2ccccc2F)CC1,inactive: 1.45%
9,O=C(O)Cc1sc(Nc2ccc(C(=O)O)cc2)nc1-c1ccccc1,inactive: -0.963%
10,CCOC(=O)c1noc2ncn(CC(=O)Nc3cc(Cl)ccc3OC)c(=O)c12,inactive: 1.68%
11,CCOc1ccccc1CNC(=O)CCCN1C(=O)COc2ccc(C)cc21,inactive: -0.739%
12,COc1ccc(-c2cn(-c3ccc(C)cc3)c(S(=O)(=O)CC(=O)Nc3ccccc3)n2)cc1,inactive: 1.38%
13,Cc1cc(Br)ccc1NC(=O)c1coc(=O)c2ccccc12,inactive: -0.134%
14,Cc1oc2ncn(CC(C)C)c(=O)c2c1C(=O)Nc1cccc(C(F)(F)F)c1,inactive: 0.841%
15,O=C(Nc1ccc(Cl)c(Cl)c1)c1cc(S(=O)(=O)N2CCN(c3cccc(Cl)c3)CC2)ccc1F,inactive: 1.55%
16,CC(C)c1ccccc1NC(=O)CSc1nnc(COc2ccccc2)o1,inactive: 4.06%
17,Cc1ccc(CNC(=O)CN(C)S(=O)(=O)c2ccc(Br)s2)cc1,inactive: -2.07%
18,CCn1c(=O)c2sccc2n2c(CCC(=O)N3CCN(c4ccccc4OC)CC3)nnc12,inactive: 5.96%
19,O=C(NCCCCc1ccccc1)c1nn(-c2ccccc2F)nc1CO,inactive: -2.03%
20,Cc1nn(CCC(=O)NCc2cccc(Br)c2)c(=O)c2nn(-c3ccccc3)c(C)c12,inactive: -1.24%
21,CC(C)OCCCn1c(SCC(N)=O)nc2c(sc3ccccc32)c1=O,inactive: 2.72%

row,Compound,"activity change, negative = inhibition"
1,COc1ccc(-c2nnc(SCC(=O)Nc3ccccc3C)o2)cc1OC,inactive: 3.97%
2,CCCOc1ccc(C(=O)NCC(c2ccc(OC)cc2)N2CCCCC2)cc1 (configuration not stated),inactive: -12.4%
3,CC(C)NC(=O)Cn1ccc2cc(S(=O)(=O)N3CCCCCC3)ccc21,inactive: -2.42%
4,CC(NC(=O)c1ccc(CSc2nc3ccncc3n2Cc2ccc(F)cc2)cc1)c1ccccc1 (configuration not stated),inactive: 1.11%
5,Cc1cccc(OCCCSc2nc(-c3ccc(C(C)(C)C)cc3)nc3cc(=O)[nH]n23)c1C,inactive: -1.78%
6,Cc1cccc(-n2c(=O)c3c(c4cc(C)ccc4n3C)n(CC(=O)Nc3ccccc3Cl)c2=O)c1,inactive: 2.47%
7,CCCCCn1c(=O)[nH]c2cc(C(=O)NCc3ccc(F)cc3)ccc2c1=O,inactive: -1.81%
8,COCCNC(=O)c1ccc2c(c1)N(Cc1ccc(C(F)(F)F)cc1)C(=O)c1ccccc1S2,inactive: 0.242%
9,CC(C)c1ccc(S(=O)(=O)c2nnn3c2nc(N2CCOCC2)c2sccc23)cc1,inactive: -4.2%
10,CC1CCN(S(=O)(=O)c2ccc3c(ccn3CC(=O)NCc3ccc(N(C)C)cc3)c2)CC1,inactive: -4.81%
11,COc1ccc(Cl)cc1NC(=O)Cn1nc(C(F)(F)F)c2c1CCC2,inactive: -13.4%
12,COc1ccc(CCC(=O)NCc2nc3cccnc3n2Cc2cccc(OC)c2)cc1,inactive: -0.758%
13,CCC1CN(C(=O)N2CCC(C(=O)N3CCN(c4ccc(F)cc4)CC3)CC2)c2ccccc2O1 (configuration not stated),inactive: 3.88%
14,CCCCc1nn2c(=O)cc(COC(=O)C(C)Oc3ccccc3)nc2s1 (configuration not stated),inactive: 0%
15,Cc1c(C(=O)Nc2ccccc2Br)oc2ccc(S(=O)(=O)N3CCOCC3)cc12,inactive: 10.3%
16,Cc1ccc(NC(=O)C2CCN(C(=O)c3cnn(-c4ccccc4)c3-n3cccc3)CC2)cc1,inactive: -0.37%
17,CCOC(=O)N1CCc2c(sc3c2c(=O)n(-c2ccc(CC)cc2)c(=O)n3CC(=O)c2ccccc2)C1,inactive: -1.18%
18,COc1ccc2c(c1)CC(NC(=O)Nc1ccc(NC(C)=O)cc1)CO2 (configuration not stated),inactive: 0%
19,CC(C)CNC(=O)c1c(-c2ccccc2)c(-c2ccccc2)nn(C)c1=O,inactive: -11.9%
20,Cc1ccccc1Cn1c(=O)n(CCCCC(=O)NCc2ccccc2Cl)c(=O)c2ccccc21,inactive: -5.54%
21,O=C(NCc1ccccc1Cl)c1ccc(NC(=O)c2nsc3ccccc23)cc1,inactive: 5.22%

row,Compound,"activity change, negative = inhibition"
1,COc1ccccc1CNC(=O)C1CCN(Cc2cc3ccccc3n2Cc2cccc(C)c2)CC1,inactive: 1.36%
2,O=C(CSc1nnc(-c2ccncc2)n1-c1ccccc1)Nc1ccc(Br)cc1,inactive: -4.74%
3,CCOc1ccc(NC(=O)C2CCN(S(=O)(=O)c3ccc4c(c3)oc(=O)n4C)CC2)cc1,inactive: -4.75%
4,CCOc1cc(C)c(C(C)C)cc1S(=O)(=O)n1ccnc1CC,inactive: -26.8%
5,CCOc1ccc2nc(N3CCC(C(=O)Nc4ccc(Br)cc4F)CC3)sc2c1,inactive: -7.6%
6,CCCNC(=O)c1c(NC(=O)c2ccc(C)cc2)sc2c1CCCCC2,inactive: -12%
7,CC(=O)N1CCOc2cc(S(=O)(=O)Nc3cc(C(F)(F)F)ccc3Cl)c(C)cc21,inactive: -10.5%
8,COc1ccc2c(c1)c1c(c(=O)n(Cc3ccccc3)c(=O)n1Cc1ccccc1)n2C,inactive: 0.103%
9,CCSc1ncc(Cl)c(C(=O)N(Cc2ccc(C(C)(C)C)cc2)C2CCS(=O)(=O)C2)n1 (configuration not stated),inactive: -16.4%
10,CCOC(=O)c1c(C)oc2nc(C)nc(NCCCN3CCN(c4cc(Cl)ccc4C)CC3)c12,inactive: 6.72%
11,CCOC(=O)c1cccc(NC(=O)Nc2ccc3c(c2)N(C)C(=O)c2ccccc2S3)c1,inactive: -11.1%
12,Cc1ccc(-c2noc(-c3nnn(CC(=O)Nc4cccc(C(F)(F)F)c4)c3N)n2)cc1,inactive: -0.473%
13,O=C(NCCCN1CCN(c2ccccc2F)CC1)C1COc2ccccc2C1 (configuration not stated),inactive: -0.568%
14,Cc1ccc(C(=O)NCC(=O)OCc2cc(=O)n3nc(C4CC4)sc3n2)cc1,inactive: -7.36%
15,O=C(O)c1cccnc1SCc1cccc(Cl)c1,inactive: 6.3%
16,COc1ccc(S(=O)(=O)Cc2ccc(C(=O)N3CCN(c4cc(C)ccc4C)CC3)o2)cc1,inactive: -2.2%
17,O=C(Nc1cccc(-c2nc3ccccc3[nH]2)c1)c1c(F)cccc1F,inactive: -15.5%
18,CCc1ccc(NCc2cc3cc4c(cc3n(CC(=O)Nc3ccc(OC)cc3)c2=O)OCO4)cc1,inactive: 0.695%
19,Cn1c(SCC(=O)N2CCOCC2)ncc(C(=O)Nc2ccc(F)cc2)c1=O,inactive: 0.569%
20,CCc1ccc(C2c3c(-c4cc(C)ccc4O)n[nH]c3C(=O)N2CCO)cc1 (configuration not stated),inactive: 2.49%

# Reference: PubChem BioAssay AID493208 (National Center for Advancing Translational Sciences (NCATS), 2011)
